Experimental data published in PubChem BioAssay (NCATS).
Where “and” joins values, the source holds several entries; their conditions need not be identical. Equal entries are not always repeated. Inconclusive means that the source gave no clear call. Such entries were picked first, then a sample of the others. Potencies beside an inconclusive call are fits to weak or partial responses and may not hold up. Calls of active or inactive are those of the source. Calls follow the shape of the dose curve; as a rule, active = well fitted inhibition curve with a large enough effect; inconclusive = small, poorly fitted or top-dose-only effect; inactive = flat fitted curve, though single readings scatter.

Each compound was assayed on HEK293 (assay: Cytotoxic Profiling of Annotated Libraries Using Quantitative High-Throughput Screening (AID 1296008; also: nearly all actives have a fitted effect of over 60% in size)). Conditions: Five cell lines viability, CellTiter-Glo ATP luminescence, 48-72 h; max response: hits give low values.
Method in brief: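 Compounds were pin-transferred onto cells and incubated 48 or 72 hr at 37 degree Celsius, 95% humidity. CellTiter-Glo was added, plates sat 10 min at room temperature, then ATP-coupled luminescence was imaged as the viability read-out.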
% is scaled to controls: 0 for no effect and ±100 for the full control effect; potency is read from the fitted curve at half-maximal effect; tags tell the direction and shape of the fitted curve.

SMILES | Potency | max response
CC(O)(CS(=O)(=O)c1ccc(F)cc1)C(=O)Nc1ccc(C#N)c(C(F)(F)F)c1 (stereo not drawn) | inconclusive: 37.2 µM [inhibitor, single point] and inconclusive: 29.1 µM [inhibitor, single point] | –
COc1ccc(N(C(=O)Oc2c(C)cccc2C)c2ccnc(Nc3ccc(N4CCN(C)CC4)cc3)n2)c(OC)c1 | – | inactive: 1.61% and inactive: -25.7%
Cc1c(C(=O)c2cccc3ccccc23)c2cccc3c2n1[C@H](CN1CCOCC1)CO3 | active: 18.7 µM | –
C/C=C(\C)C(=O)O[C@H]1CC2C(=C1C)[C@H]1OC(=O)[C@](C)(O)[C@]1(O)[C@H](OC(=O)CCC)C[C@@]2(C)OC(C)=O (stereo partly drawn) | inconclusive: 2.82 µM [inhibitor, partial curve] | –
C[C@@H]1[C@@H](CC(C[C@H]2O[C@@H]3O[C@]4(C)CC[C@@H]5[C@H](C)CC[C@@H]([C@H]2C)[C@@]35OO4)C[S+](=O)([O-])c2ccc(COC(=O)N(C)C)cc2)O[C@@H]2O[C@]3(C)CC[C@H]4[C@H](C)CC[C@@H]1[C@@]24OO3 (stereo partly drawn) | inconclusive: 0.132 µM [inhibitor, full curve, poor fit] | –
C[C@](O)(CS(=O)(=O)c1ccc(F)cc1)C(=O)Nc1ccc(C#N)c(C(F)(F)F)c1 | inconclusive: 33.2 µM [inhibitor, single point] | –
C[C@@H]1[C@@H](C(=O)C[C@H]2O[C@@H]3O[C@]4(C)CC[C@@H]5[C@H](C)CC[C@@H]([C@H]2C)[C@@]35OO4)O[C@@H]2O[C@]3(C)CC[C@H]4[C@H](C)CC[C@@H]1[C@@]24OO3 | active: 0.332 µM | –
C[N+](C)(C)CC(=O)O | – | inactive: -2.82%
